This is one part of the list.
system: PfAP2-HC AP2 domain (GST-tagged); assay: gcPBM binding intensity (ln(normalized median fluorescence intensity)); higher = stronger DNA binding
Outline: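 Probes on an Agilent 4 × 180k array were primer-extended, double-stranded and 36 bp long, taken from intergenic genomic regions, with negative controls added. GST-tagged P. falciparum DNA-binding domains from E. coli, about 25 μg on average, were applied to the array for 1 h in 1× PBS containing 1% milk, 0.2 mg/ml BSA, 0.5% salmon testes DNA and 0.03% Triton X-100. Binding intensity, obtained after Alexa488 anti-GST antibody detection and a 488 nm scan, is the highest Masliner-normalised natural-log median intensity across replicate spots of either probe orientation.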

| Sequence | gcPBM binding intensity (ln) |
| --- | --- |
| ATATATATGTTTTATAGTACACACATAAATGGACAT [XGTACX_site4538] | 9.82 |
| CTATTATTTTTAAATTGTACTATAACAAAATGTATA [XGTACX_site3916] | 9.52 |
| AAATAAATCTATAATACACACAAAAATATAAAATGC [CACACA_site7700] | 10 |
| TTTATATTTATATAAATATAATATATATGAATTATA [XGTACX_negctrl_site466] | 9.03 |
| TTAGATATGTGTAAGGGTACAAAATACTTTACATTT [XGTACX_site8204] | 9.58 |
| CTTCAATATATTCTTACACACTTAAAAAAAAAAATA [CACACA_site4287] | 9.3 |
| TTAAGAAATAACAATGCACACATTTAGGTCTTTTAT [CACACA_site3285] | 9.73 |
| ATAACTTGTATATATACACACACACCCTTTCTTTTT [CACACA_site8600] | 10.4 |
| TATATTATATTATACATACACACCCATATAATATGT [CACACA_site869] | 10.1 |
| TTTTCGATGTTGGTAGGAAGTTTGGTACACGTAGTA [TGCATGCA_negctrl_site145] | 9.6 |
| CGTATTTATAGAATTACACACCATATTGTAATTATT [CACACA_site7722] | 9.72 |
| GTGTTTTTATTATTTTGTACACATATATTTAATATT [XGTACX_site2109] | 10.1 |
| TTTTTTTTGTAATACGCATGCTAAAAATATTTATAA [TGCATGCA_site656] | 9.41 |
| TTGTCCCTATAAGGGGAACACACATAAATGAATATA [CACACA_site8250] | 9.57 |
| AAAACTATTTGTAAAAGTACATAATAAATAAATAAA [XGTACX_site7922] | 9.8 |
| ATAATGTTTTATAATACACACATTATGTATATAAAT [CACACA_site4077] | 9.8 |
| AAAATTCATATATACACACACGCACATATATATATA [CACACA_site90] | 10.8 |
| GAATGTCTAATTTTGATGCACACTTTTGTGCAATTA [CACACA_site2902] | 9.63 |
| TTATATTATTCGTGTGTGCACGATATTTCATAATTG [GTGCAC_site9767] | 9.8 |

| Sequence | gcPBM binding intensity (ln) |
| --- | --- |
| CAAAAAATTCAACACACACACACACCGATAAATAAA [CACACA_site8330] | 10.7 |
| TTTCCTTATAAAAATACACACAAACTTTAATTAAAA [CACACA_site7710] | 9.49 |
| TATTCCAAATTTACTAGTACATAATCCATCCGATAA [XGTACX_site1558] | 9.46 |
| TTTCTTTTTAAATGCTGTACAAAGGGTGACGTTAAA [XGTACX_site4724] | 9.44 |
| TATTACACATATTATACACACATATATTATAGATAT [CACACA_site6839] | 9.94 |
| TATATATATATATATTGTACACATTGTGTTTAAATA [XGTACX_site5104] | 9.6 |
| AATAGAATGTAATATACACACATATATTTCTCTTTT [CACACA_site2630] | 9.78 |
| TTTTTATTGTTAATTTTAATTTTTTTTTTTTAATGC [CACACA_negctrl_site162] | 9.33 |
| TTGTAACCTATGCACGCACACAAGAAAAAAACAAAA [CACACA_site3775] | 10 |
| TTTTCTTTTTTTTTTGTGCACATAATATATAATTAT | 9.8 |
| ATATTTTTTAGTAAGACGAAATAAATAAATCTTTAT [CACACA_negctrl_site1778] | 9.22 |
| TATATATATATAAGCACACAAACAAAAAAAATTATA [CACACA_site3897] | 9.98 |
| TTTTTCCTATTTTTAGTGCACATATAAATAAATAAA [GTGCAC_site9821] | 9.26 |
| ATTGAATATGTAAATGCACACCAAAAAAAAAAAAAA [CACACA_site9189] | 9.7 |
| ATTTTTTATATTTAGTGTACATGTTTTAATTTATAA [XGTACX_site7512] | 9.71 |
| ATAACTTTATTCAGTTTGCACTTTTATAACAAAAGA | 9.47 |
| CTTATATAATTCGATAGTACATATTTTTATATATAT [XGTACX_site4045] | 9.68 |
| TTTACTCCTACAACATGTACATAAAATAAATTTTTT [XGTACX_site5010] | 9.58 |
| ACATGTTAACTAAATGTACACACCTATGTTGATGTA [CACACA_site1821] | 9.72 |

| Sequence | gcPBM binding intensity (ln) |
| --- | --- |
| TTATTTACAACTTTTTTTTTTTTATTTTATTTTATT [CACACA_negctrl_site341] | 9.61 |
| ACATAGCAATGTTTCACACACAAGAAAAAATACAAT [CACACA_site2379] | 10 |
| TTTGAACTCTTAAGTGGTACAAATTTGTATTTTCTC [XGTACX_site2322] | 9.61 |
| GAAATGTGGTAATATACACACACGCATATATTTATA [CACACA_site6285] | 9.89 |
| AATGGAATATATATTTGTACATAAATATTATAATAA [XGTACX_site8524] | 9.6 |
| TATAAATAAAAATATACACACTGTATTATTGTAATA [CACACA_site7721] | 9.68 |
| TCGTGGTTTTAATAAGTGCGCAATTTAAATATTTTT | 9.74 |
| TATTATTATTATTACACACACAATTATATTTACCCC [CACACA_site503] | 10 |
| GTATATATATATATATATATATATTTTTATTTATTT [CACACA_negctrl_site589] | 9.51 |
| AATATAAGTAGTACAGTGCATATAATAATTAGAAGA [GTGCAC_site9485] | 9.89 |
| GATTAAACACAAAGAAGTACGGACATAAAAAAAAAA [XGTACX_site3686] | 9.73 |
| TTGATTTATATTTAATGTACATTTTTACAGAAAATT [XGTACX_site2747] | 9.53 |
| CCATAAAAAGGATACACACACACACGCACATATATA [CACACA_site6550] | 10.8 |
| ATATATATATTATATGCACACGTTAAAATTTCATAT [CACACA_site4552] | 9.71 |
| TAAAAATATTAATAAACACACAATGAGATATTGAAT [CACACA_site3153] | 9.83 |
| AAATATAAAATTTATTGTACATTATATATAATATAT [XGTACX_site1416] | 9.61 |
| TGATATATTTATATTACACACTTAAACGAAAAAAAA [CACACA_site3021] | 9.62 |
| TATTATAATATTTATACACACATAATTTTGATAAAT [CACACA_site583] | 9.65 |
| ATATTATATATATAGGTGCGAGTATTTTATAAATAT [GTGCAC_site9889] | 9.72 |

Source: the supplement of paper PMC11417369
